Source: PubChem BioAssay AID485313 (National Center for Advancing Translational Sciences (NCATS), 2010)
Screen size: about 320,000 compounds; about 7,600 (2.4%) were called active. This list was built around the results that the source calls inconclusive (neither active nor inactive); the mix of calls is not that of the screen. Calls come from the whole dose curve; as a rule, active = well fitted activation curve with a large enough effect; inconclusive = small, poorly fitted or top-dose-only effect; inactive = no such curve, though single readings can be large or run the other way. Where the call is inconclusive, the potency comes from a doubtful curve fit.

Experiment: qHTS Assay for NPC1 Promoter Activators; note: nearly all actives have a fitted effect of over 60% in size;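 for activation: reporter is driven by a mutant NPC1 promoter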
Details: Huh7 NPC1 promoter luciferase reporter, 24 h; series mostly up to 9.22 µM
Outline: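 In 1536-well qHTS, Huh7 cells harboring an NPC1 promoter–luciferase construct received compound for 24 h; activation was quantified by luminescence following luciferase reagent addition.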
Potency is the fitted concentration of half-maximal effect; tags give direction and shape of the fitted curve.

Potency, inactive:
Cc1ccc(NC(=O)CN2CCN(S(=O)(=O)c3ccc(F)cc3)CC2)cc1C
CCSc1nc2sccc2c(=O)n1-c1ccccc1
COc1c(C)cc(Br)cc1C(=O)NC(=S)Nc1ccc(Cl)c(C(=O)O)c1
Clc1ccc(C2=Nn3c(nnc3-c3n[nH]c4c3CCC4)SC2)cc1
CSc1ccc(S(=O)(=O)Nc2ccc3c(c2)OCCO3)cc1
CN(Cc1nc2ccccc2s1)C(=O)c1ccc(F)cc1
CCC(C)NC(=O)c1cn(CC)c2ccc(S(=O)(=O)N(C)C)cc2c1=O (stereo unspecified)
CN(C)S(=O)(=O)c1cccc(NC(=O)CO/N=C(\N)c2ccccc2)c1
O=C(Nc1ccc(Nc2ccncc2)cc1)c1ccc(Nc2ccnc3ccc([N+](=O)[O-])cc23)cc1[N+](=O)[O-]
Cc1nc(NC(=O)c2ccccc2)sc1-c1csc(Nc2cccc(F)c2)n1
CC(C)C(CCNC1CCN(C)CC1)c1ccc(Cl)cc1 (stereo unspecified)
Cc1cccc(N2C(=O)CCC2=O)n1
Cc1cc([N+](=O)[O-])ccc1NC(=O)c1cncc(Br)c1
COc1ccc(CCNC(=O)CCOc2ccc(C)cc2)cc1OC

Potency, inconclusive:
CCOc1ccc2nc(SCC#N)c(C#N)cc2c1 3.16 µM [activator, partial curve]
O=c1ccnc(S/C=C/c2ccccc2)[nH]1 5.62 µM [activator, single point]
CSc1cccc(NC(=O)c2[nH]c(C)c(C(C)=O)c2C)c1 3.55 µM [activator, partial curve]
COc1ccccc1CN1CC(C(=O)NCc2c(F)ccc(C)c2F)CCC1=O (stereo unspecified) 5.01 µM [activator, single point]
Cn1c(=NC(=O)c2ccco2)sc2ccccc21 5.62 µM [activator, single point]
CCCCNc1ncnc2c1cnn2-c1ccc(Cl)cc1 0.398 µM [activator, partial curve]
S=C(Nc1cccc(Cl)c1)Nc1ccc2c(c1)OCCO2 3.16 µM [activator, partial curve]
Cc1ccc(NC(=O)CNC(=O)c2ccco2)cc1 3.98 µM [activator, partial curve]
CCN(CC)C(=N)/C(C#N)=N/Nc1ccccc1 3.98 µM [activator, partial curve]
CCc1nn(CC(=O)N2CCCCCC2)c(=O)c2cc3ccccc3n12 0.794 µM [activator, single point]
CCOC(=O)c1ccc(NC(=S)Nc2cccc(N)n2)cc1 2.51 µM [activator, partial curve]
CC(=O)c1cccc(NC(=O)C(=O)Nc2cccc3ccccc23)c1 3.16 µM [activator, partial curve]
CCN(CC)C(=O)c1cc(-c2ccccc2OC)on1 3.55 µM [activator, single point]
COc1ccc(C(=O)Nc2cccc(-c3ccc(N4CCOCC4)nn3)c2)cc1 3.55 µM [activator, partial curve]
C(=N\Nc1cc(N2CCCCC2)ncn1)/c1ccco1 5.62 µM [activator, single point]
COc1ccc2cnn(-c3ccc(C)cc3)c(=O)c2c1OC 2.24 µM [activator, partial curve]
CN(C(=O)CSc1ncnc2ccccc12)C1CCCCC1 3.16 µM [activator, partial curve]
O=C(O)c1ccc(N/N=C/c2c(F)cccc2Cl)cc1 0.1 µM [activator, partial curve]
CCOc1ncccc1C(=O)OCC(=O)c1ccc(F)cc1 3.55 µM [activator, single point]
Cc1sc(NC(=O)Nc2ccccc2)c(C(N)=O)c1C 5.62 µM [activator, single point]
COc1ccc2nc(NC(=O)c3ccc([N+](=O)[O-])o3)sc2c1 5.01 µM [activator, single point]
CSc1ccccc1OCc1cc(C(=O)N(C)Cc2cnccn2)no1 2.51 µM [activator, partial curve]
Cc1ccccc1/C=C\c1nc2ccccc2c(=O)[nH]1 0.562 µM [activator, full curve]
Cc1nc2cc(NC(=O)C3COc4ccccc4O3)ccc2s1 (stereo unspecified) 5.62 µM [activator, single point]
O=C(Nc1ccc2ccccc2c1)C(=O)C1C(=O)Nc2ccccc21 (stereo unspecified) 3.16 µM [activator, partial curve]
O=C(Nc1cccc(Cl)c1)OCc1ccccn1 4.47 µM [activator, partial curve]
Cc1c(C(=O)Nc2ccc(F)cc2)c2ccccn2c1CCc1ccncc1 1.58 µM [activator, partial curve]
O=C(NCc1ccccn1)Nc1ccccc1 1.58 µM [activator, partial curve]

Potency, active:
c1ccc2oc(SCc3cn4ccsc4n3)nc2c1 2.82 µM
Cc1cc(C(=O)COC(=O)c2ccc(O)cc2O)c(C)n1C(C)C 3.55 µM
Cc1ccc(NC(=O)CSc2ncccc2C(=O)Oc2cccc([N+](=O)[O-])c2)cc1Cl 4.47 µM
O=C(N/N=C/C(Cl)=C\c1ccccc1)c1ccco1 2.51 µM
CC(/C=N/NC(=O)c1ccccc1F)=C\c1ccccc1 1.12 µM
CC(=O)N(c1ccccc1)c1nnc(-c2cnc(C)cn2)s1 1.58 µM
Cc1cccc(NC(=O)C(=O)NCC2CCCO2)c1 (stereo unspecified) 2.51 µM
CC(C)(C)C(=O)c1sc(Nc2ccccc2)nc1N 2 µM
O=C(Nc1nc2cc3c(cc2s1)OCO3)C1CCCCC1 1.78 µM
